Source: the supplement of paper PMC8728848
This is one part of the list.

Tests used:
Experiment in all cases: glycan array binding signal (z-score within array); higher = stronger binding
Settings in all cases: glycan notation: IUPAC condensed, linker removed
[1] = molecular target: Gal(b1-4)GlcNAc(b1-3)Gal(b1-4)GlcNAc(b1-3)Gal(b1-4)GlcNAc(b1-3)Gal(b1-4)GlcNAc(b1-2)Man(a1-3)[Gal(b1-4)GlcNAc(b1-3)Gal(b1-4)GlcNAc(b1-3)Gal(b1-4)GlcNAc(b1-3)Gal(b1-4)GlcNAc(b1-2)Man(a1-6)]Man(b1-4)GlcNAc(b1-4)[Fuc(a1-6)]GlcNAc
Method in brief: (§1)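 The Consortium for Functional Glycomics database supplied 3228 glycan arrays, of which those lacking an available protein sequence were dropped. The binding signal, a within-array Z-score, was averaged across arrays of the same protein sequence and across linkers. Negative scores can be read as non-binding.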

[2] = molecular target: Gal(b1-4)GlcNAc(b1-3)Gal(b1-4)GlcNAc(b1-3)Gal(b1-4)GlcNAc(b1-3)Gal(b1-4)GlcNAc(b1-2)[Gal(b1-4)GlcNAc(b1-3)Gal(b1-4)GlcNAc(b1-3)Gal(b1-4)GlcNAc(b1-3)Gal(b1-4)GlcNAc(b1-6)]Man(a1-6)[Gal(b1-4)GlcNAc(b1-3)Gal(b1-4)GlcNAc(b1-3)Gal(b1-4)GlcNAc(b1-3)Gal(b1-4)GlcNAc(b1-2)Man(a1-3)]Man(b1-4)GlcNAc(b1-4)[Fuc(a1-6)]GlcNAc
Method in brief: as §1

[3] = molecular target: Gal(b1-4)GlcNAc(b1-3)Gal(b1-4)GlcNAc(b1-3)Gal(b1-4)GlcNAc(b1-3)Gal(b1-4)GlcNAc(b1-3)Gal(b1-4)GlcNAc(b1-2)Man(a1-3)[Gal(b1-4)GlcNAc(b1-3)Gal(b1-4)GlcNAc(b1-3)Gal(b1-4)GlcNAc(b1-3)Gal(b1-4)GlcNAc(b1-3)Gal(b1-4)GlcNAc(b1-2)Man(a1-6)]Man(b1-4)GlcNAc(b1-4)GlcNAc
Method in brief: as §1

[4] = molecular target: Gal(b1-4)GlcNAc(b1-3)Gal(b1-4)GlcNAc(b1-3)Gal(b1-4)GlcNAc(b1-3)Gal(b1-4)GlcNAc(b1-3)Gal(b1-4)GlcNAc(b1-2)Man(a1-3)[Gal(b1-4)GlcNAc(b1-3)Gal(b1-4)GlcNAc(b1-3)Gal(b1-4)GlcNAc(b1-3)Gal(b1-4)GlcNAc(b1-3)Gal(b1-4)GlcNAc(b1-2)Man(a1-6)]Man(b1-4)GlcNAc(b1-4)[Fuc(a1-6)]GlcNAc
Method in brief: as §1

[5] = molecular target: Gal(b1-4)GlcNAc(b1-3)Gal(b1-4)GlcNAc(b1-3)Gal(b1-4)GlcNAc(b1-3)Gal(b1-4)GlcNAc(b1-3)Gal(b1-4)GlcNAc(b1-2)[Gal(b1-4)GlcNAc(b1-3)Gal(b1-4)GlcNAc(b1-3)Gal(b1-4)GlcNAc(b1-3)Gal(b1-4)GlcNAc(b1-3)Gal(b1-4)GlcNAc(b1-6)]Man(a1-6)[Gal(b1-4)GlcNAc(b1-3)Gal(b1-4)GlcNAc(b1-3)Gal(b1-4)GlcNAc(b1-3)Gal(b1-4)GlcNAc(b1-3)Gal(b1-4)GlcNAc(b1-2)Man(a1-3)]Man(b1-4)GlcNAc(b1-4)[Fuc(a1-6)]GlcNAc
Method in brief: as §1

[6] = molecular target: Gal(b1-4)GlcNAc(b1-3)Gal(b1-4)GlcNAc(b1-3)Gal(b1-4)GlcNAc(b1-3)Gal(b1-4)GlcNAc(b1-3)Gal(b1-4)GlcNAc(b1-3)Gal(b1-4)GlcNAc(b1-2)Man(a1-3)[Gal(b1-4)GlcNAc(b1-3)Gal(b1-4)GlcNAc(b1-3)Gal(b1-4)GlcNAc(b1-3)Gal(b1-4)GlcNAc(b1-3)Gal(b1-4)GlcNAc(b1-3)Gal(b1-4)GlcNAc(b1-2)Man(a1-6)]Man(b1-4)GlcNAc(b1-4)GlcNAc
Method in brief: as §1

[7] = molecular target: Gal(b1-4)GlcNAc(b1-3)Gal(b1-4)GlcNAc(b1-3)GalNAc
Method in brief: as §1

[8] = molecular target: Gal(b1-4)GlcNAc(b1-3)Gal(b1-4)GlcNAc(b1-3)[Gal(b1-4)GlcNAc(b1-3)Gal(b1-4)GlcNAc(b1-6)]GalNAc
Method in brief: as §1

[9] = molecular target: Gal(b1-4)GlcNAc(b1-3)Gal(b1-4)GlcNAc(b1-6)[Gal(b1-3)]GalNAc
Method in brief: as §1

[10] = molecular target: Gal(b1-4)GlcNAc(b1-3)Gal(b1-4)[Fuc(a1-3)]GlcNAc(b1-3)Gal(b1-4)[Fuc(a1-3)]GlcNAc
Method in brief: as §1

[11] = molecular target: Gal(b1-4)GlcNAc(b1-3)GalNAc
Method in brief: as §1

[12] = molecular target: Gal(b1-4)GlcNAc(b1-3)[Fuc(a1-3)GlcNAc(b1-6)]Gal(b1-4)Glc
Method in brief: as §1

[13] = molecular target: Gal(b1-4)GlcNAc(b1-3)[Gal(b1-4)GlcNAc(b1-6)]Gal(b1-4)GlcNAc
Method in brief: as §1

[14] = molecular target: Gal(b1-4)GlcNAc(b1-3)[GlcNAc(b1-6)]Gal(b1-4)GlcNAc
Method in brief: as §1

[15] = molecular target: Gal(b1-4)GlcNAc(b1-6)Gal(b1-4)GlcNAc
Method in brief: as §1

[16] = molecular target: Gal(b1-4)GlcNAc(b1-6)GalNAc
Method in brief: as §1

[17] = molecular target: Gal(b1-4)GlcNAc(b1-6)[Gal(b1-3)]GalNAc
Method in brief: as §1

[18] = molecular target: Gal(b1-4)GlcNAc(b1-6)[Gal(b1-4)GlcNAc(b1-3)]GalNAc
Method in brief: as §1

Gal(b1-4)GlcNAc6P = molecular target: Gal(b1-4)GlcNAc6P
Method in brief: as §1

Gal(b1-6)Gal = molecular target: Gal(b1-6)Gal
Method in brief: as §1

Gal3S(b1-3)GalNAc = molecular target: Gal3S(b1-3)GalNAc
Method in brief: as §1

Gal3S(b1-3)GlcNAc = molecular target: Gal3S(b1-3)GlcNAc
Method in brief: as §1

[19] = molecular target: Gal3S(b1-3)[Fuc(a1-4)]GlcNAc
Method in brief: as §1

B1: LecB PA7 (Pseudomonas aeruginosa) (protein)
chain: MATQGVFTLPANTRFGVTAFANSSATQTVKVLVNNETAATFTGQSTNNAVIGSQVLNSGGGGKVQIQVSVNGRSSDLVSAQVILANELNVALVGSEDSTDNDYNDAVVVINWPLG
glycan array binding signal (z-score) [1]: 0.21 | glycan array binding signal (z-score) [2]: 0.012 | glycan array binding signal (z-score) [3]: -0.467 | glycan array binding signal (z-score) [4]: 0.512 | glycan array binding signal (z-score) [5]: 0.197 | glycan array binding signal (z-score) [6]: -0.412 | glycan array binding signal (z-score) [7]: -0.487 | glycan array binding signal (z-score) [8]: -0.495 | glycan array binding signal (z-score) [9]: -0.487 | glycan array binding signal (z-score) [10]: 2.05 | glycan array binding signal (z-score) [11]: -0.505 | glycan array binding signal (z-score) [12]: 0.03 | glycan array binding signal (z-score) [13]: -0.511 | glycan array binding signal (z-score) [14]: -0.043 | glycan array binding signal (z-score) [15]: -0.503 | glycan array binding signal (z-score) [16]: -0.396 | glycan array binding signal (z-score) [17]: -0.349 | glycan array binding signal (z-score) [18]: -0.508 | glycan array binding signal (z-score) (Gal(b1-4)GlcNAc6P): -0.513 | glycan array binding signal (z-score) (Gal(b1-6)Gal): -0.493 | glycan array binding signal (z-score) (Gal3S(b1-3)GalNAc): -0.349 | glycan array binding signal (z-score) (Gal3S(b1-3)GlcNAc): -0.501 | glycan array binding signal (z-score) [19]: 2.65
